# Reference: PubChem BioAssay AID686978 (National Center for Advancing Translational Sciences (NCATS), 2013)
# “And” between values parts separate entries of the source, which are not always exact repeats. Equal values may be shown once. Hit rate of the full screen: of about 420,000 compounds, about 64,000 (15%) were called active. This list was built around the results that the source calls inconclusive (neither active nor inactive); the mix of calls is not that of the screen. The call rests on the fitted dose curve; in most records, active means well fitted inhibition curve with a large enough effect; inconclusive means small, poorly fitted or top-dose-only effect; inactive means flat fitted curve, though single readings scatter. Potencies of inconclusive entries are doubtful fits and often do not repeat.
# Experiment: qHTS for Inhibitors of human tyrosyl-DNA phosphodiesterase 1 (TDP1): qHTS in cells in absence of CPT; further: nearly all actives have a fitted effect of over 55% in size
# Conditions: DT40 Tdp1-/- hTDP1 cells, no CPT, ATP luminescence, 48 h; activity change, negative = growth inhibition: at 46.2 µM (top of the series) unless noted
# Procedure, shortened: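 Chicken DT40 Tdp1-/- cells stably complemented with human TDP1 were seeded at 400 cells/well with DMSO in place of 20 nM camptothecin. After compound pinning, cells grew at least 48 hr at 37 °C; viability read by CellTiter-Glo luminescence.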
# On the % scale 0 is the no-effect control and ±100 the full control effect; potency means the concentration at half of the fitted maximal effect; tags describe the fitted curve by direction and shape.
Structure (SMILES),Potency,"activity change, negative = growth inhibition"
CCOc1ccccc1NC(=O)c1c(NC(=O)C(C)Oc2ccc(Cl)cc2)sc2c1CCCCC2 (centres undefined),"inconclusive: 23.1 µM [inhibitor, single point]",
CC1(Oc2cccc(C#N)c2)CCN(Cc2ccc(-c3ccccn3)cc2)C1 (centres undefined),"inconclusive: 25.9 µM [inhibitor, single point]",
CC(=O)N1CCN(c2ccccc2NC(=O)COc2ccc(Br)cc2)CC1,,inconclusive: -35.7% [inhibitor]
O=C(Nc1nnc(C2CC2)s1)c1cncc(Br)c1,,inactive: -26.6%
c1ccc(COc2cccc(-c3cc4nc(NCCN5CCOCC5)ccn4n3)c2)cc1,active: 13 µM,
CC(C)(C)c1ccc(Cn2nnc3c(=O)[nH]c(C4CCCN(C(=O)c5cccs5)C4)nc32)cc1 (centres undefined),"inconclusive: 29.1 µM [inhibitor, single point]",
COC(=O)c1ccc(NC(=O)c2snnc2-c2ccccc2)cc1,"inconclusive: 0.461 µM [inhibitor, full curve, poor fit]",
COc1ccc(-c2nc3c(C)cc(Br)cn3c2Cc2ccccc2)cc1OC,active: 6.51 µM,
Cc1[nH]nc2c1C(C(C)c1ccccc1)C(C#N)=C(N)O2 (centres undefined),"inconclusive: 16.4 µM [inhibitor, single point]",
CCOCCCNC(=O)c1c[nH]c2ccc(S(=O)(=O)Nc3cccc(OC)c3)cc2c1=O,"inconclusive: 18.4 µM [inhibitor, single point]",
Cc1c(C(=O)N2CCOc3ccccc3C2)sc2ncnc(NCCCN3CCOCC3)c12,,inactive: -6.57%
CC(/C=C1\N=C(SCc2ccccc2)SC1=O)=C\c1ccccc1,"inconclusive: 6.51 µM [inhibitor, partial curve]",
CCn1c(SCC(=O)N2CCCCCC2)nc2ccccc2c1=O,"inconclusive: 23.1 µM [inhibitor, partial curve, poor fit]",
CN(C[C@H](Cc1ccccc1)N(C[C@H](Cc1cccc2ccccc12)N(CCc1ccccc1)N=O)N=O)N=O,"inconclusive: 23.1 µM [inhibitor, single point] and inconclusive: 8.2 µM [inhibitor, partial curve]",
Cc1noc(C)c1C(=O)N1CCCC(C(=O)c2cccc(OC(C)C)c2)C1 (centres undefined),"inconclusive: 20.6 µM [inhibitor, partial curve, poor fit]",
CC(C)CCn1c(=O)c2sccc2n2c(CCCC(=O)NC(C)C)nnc12,,inactive: -7.54%
CCCc1cc(=O)n2c(nc3ccccc32)[nH]1,"inconclusive: 25.9 µM [inhibitor, single point]",
CCc1ccc(S(=O)(=O)NCc2csc(-c3ccccc3)n2)s1,"inconclusive: 29.1 µM [inhibitor, partial curve, poor fit]",
CCOc1cc(/C=C2/N=C(c3ccc(C(C)(C)C)cc3)OC2=O)cc(Cl)c1OS(C)(=O)=O,"inconclusive: 29.1 µM [inhibitor, single point]",
CC(C)CC1N=C2c3ccccc3N=C(SCC(=O)NCCc3ccc(Cl)cc3)N2C1=O (centres undefined),"inconclusive: 20.6 µM [inhibitor, partial curve]",
CC(=O)c1ccc(Nc2cc(C)nc3c(C)cc(C)cc23)cc1,active: 4.61 µM,
COc1ccc(OC)c(NC(=O)CSc2ccc(-c3ccco3)nn2)c1,"inconclusive: 29.1 µM [inhibitor, single point]",
C[C@@H]1CN([C@@H](C)CO)S(=O)(=O)c2ccc(/C=C/c3ccccc3)cc2O[C@@H]1CN(C)Cc1ccc(C(=O)O)cc1,active: 20.6 µM,

Structure (SMILES),Potency,"activity change, negative = growth inhibition"
CC(C)(Oc1ccc(Br)cc1)C(=O)N1CCc2ccccc21,,inconclusive: -31.3% [inhibitor]
N#C/C(=N/Nc1ccc(S(=O)(=O)N2CCOCC2)cc1)C(N)=O,,inactive: -16.4%
COc1ccc(C(CC(=O)N2CCCCC2)c2c(O)cc(OC)cc2OC)cc1 (centres undefined),"inconclusive: 23.1 µM [inhibitor, single point]",
COc1ccc(-n2c(=O)c3c4c(sc3n(Cc3ccccc3Cl)c2=O)CCC4)c(OC)c1,active: 20.6 µM,
O=C1C2ON(c3ccc(Cl)cc3)C(c3ccco3)C2C(=O)N1c1ccccc1 (centres undefined),,inactive: -0.0338%
CCCN(N=Nc1cccc([N+](=O)[O-])c1)c1cccc([N+](=O)[O-])c1,"inconclusive: 20.6 µM [inhibitor, single point]",
CN(C(=O)c1sc2nc(N3CCOCC3)c3c(c2c1N)CCCC3)c1ccccc1,active: 23.1 µM,
CCc1cc2cccc(C)c2nc1SCC(=O)Nc1cc(C)on1,,inactive: -3.72%
CCCN(CC(=O)Nc1ccccc1C)C(=O)c1ccc(N2CCOCC2)c([N+](=O)[O-])c1,,inactive: -3.14%
CC(NC(=O)[C@H](C)NC(=O)C1CC(=O)N(c2ccc3c(c2)OCO3)C1)c1ccccc1 (some centres undefined),,inactive: 23.4%
COC(=O)c1ccc(-c2ccc(/C=N/N3C(=O)C4C5C=CC(CC5)C4C3=O)o2)cc1 (centres undefined),,inactive: -27.7%
O=C(NCC(=O)N1CCCCCCC1)c1ccco1,,inactive: 21.1%
CCOC(=O)c1csc(CCNC(=O)c2ccccc2)n1,"inconclusive: 29.1 µM [inhibitor, single point]",
CCn1cc(C(=O)N2CCCc3ccccc32)c2cc(OC)c(OC)cc2c1=O,"inconclusive: 25.9 µM [inhibitor, single point]",
CCOC(=O)c1c(CSCc2ccccc2)oc2ccc(O)c(CN(C)C)c12,active: 16.4 µM,
O=C(NC1C2CC3CC(C2)CC1C3)c1ccc(N2CCNCC2)c([N+](=O)[O-])c1 (centres undefined),"inconclusive: 29.1 µM [inhibitor, single point]",
COc1cc(O)c(C(CC(=O)N2CCCCC2)c2ccc(N(C)C)cc2)c(OC)c1 (centres undefined),,inactive: -21.1%
COc1cccc(CNC(=O)CN(C)S(=O)(=O)c2ccc3[nH]c4c(c3c2)CCCC4)c1,"inconclusive: 29.1 µM [inhibitor, single point]",
Cc1cccc(OCC(=O)Nc2ccccc2OCc2cc(=O)n3ccccc3n2)c1,,inactive: 1.38%
Cc1ccc(C(=O)N2CCCC(N3CCN(c4ccccc4F)CC3)C2)s1 (centres undefined),"inconclusive: 23.1 µM [inhibitor, single point]",
O=C(CCN1C(=O)CSc2ccccc21)Nc1ccc(OC(F)(F)F)cc1,"inconclusive: 14.6 µM [inhibitor, single point]",
Cc1cc(C)cc(NC(=O)c2cccc(C(=O)Nc3cc(C)cc(C)c3)n2)c1,"inconclusive: 25.9 µM [inhibitor, single point]",
OCCNc1nc2nonc2nc1NCCO,,inactive: 2.77%

Structure (SMILES),Potency,"activity change, negative = growth inhibition"
CN(C)S(=O)(=O)N1CCN(CC(=O)Nc2cc(Cl)ccc2Cl)CC1,"inconclusive: 18.4 µM [inhibitor, single point]",
O=C(CSc1ccc2c(c1)OCCO2)NC(=O)NC1CCCC1,,inactive: -26.7%
O=C(CNS(=O)(=O)c1ccc([N+](=O)[O-])cc1)N/N=C/c1ccc(O)cc1O,"inconclusive: 23.1 µM [inhibitor, single point]",
Cc1ccc(CN2CCc3nc(N4CCN(c5ccccc5F)CC4)ncc3C2)cc1C,,inactive: -3.73%
O=C(Nc1ccc(Cl)cc1)c1cc2nc(C3CC3)cc(C(F)(F)F)n2n1,,inactive: -8.12%
O=[N+]([O-])c1ccc(-c2c(-c3ccccc3)ncc3cc(F)ccc23)cc1,active: 18.4 µM,
COc1cccc(-c2cc(C(F)(F)F)nc(NCCc3ccccc3)n2)c1,"inconclusive: 29.1 µM [inhibitor, single point]",
Cc1cccc(C)c1-n1ncc(C(=O)Nc2ccc3c(c2)OCO3)c1C1CCN(C(=O)OC(C)(C)C)CC1,"inconclusive: 29.1 µM [inhibitor, single point]",
CCOc1ccc(C(C)C)cc1S(=O)(=O)n1ccnc1C,"inconclusive: 1.16 µM [inhibitor, full curve]",
COc1ccc(S(=O)(=O)N(C)C[C@H]2Oc3ncc(Br)cc3C(=O)N([C@@H](C)CO)C[C@@H]2C)cc1,active: 11.6 µM,
CCCN(CCC)c1nc(C#N)nc(N(CCC)CCC)n1,"inconclusive: 25.9 µM [inhibitor, single point] and inconclusive: 35.5 µM [inhibitor, single point]",
CCCCOc1ccc(CN2C(=O)C(=O)c3cc(Br)cc(C)c32)cc1OC,active: 1.16 µM,
CCOc1ccccc1CNC(=O)C1CCCN(c2ncnc3onc(-c4ccc(F)cc4)c23)C1 (centres undefined),active: 20.6 µM,
Cc1ccccc1NC(=O)C[n+]1cc(-c2ccccc2)n2c1CCC2,,inactive: -5.39%
Cc1[nH]c2c([N+](=O)[O-])cccc2c1C,,inactive: 2.91%
CCCCOc1ccc(CN=C(N)N)cc1Cl,active: 1.46 µM,
Nc1c(-c2ccc(C(F)(F)F)cc2)nc2ncccn12,"inconclusive: 20.6 µM [inhibitor, single point]",
Cc1cc(-c2ccccc2)nc2cc(C(=O)NCc3ccco3)nn12,"inconclusive: 32.6 µM [inhibitor, single point]",
O=C(Cn1ncc2c3ccccc3n(Cc3ccccc3)c2c1=O)N1CCN(c2ccccn2)CC1,"inconclusive: 29.1 µM [inhibitor, single point]",
CC(=O)c1ccc(NC(=O)CSc2ccc3nnc(-c4cccnc4)n3n2)cc1,,inactive: -17.9%
O=C(NCc1ccccc1Cl)C1CCCN(C(=O)c2cnn(-c3ccccc3)c2-n2cccc2)C1 (centres undefined),"inconclusive: 29.1 µM [inhibitor, single point]",
COc1ccc(-c2cc(C(=O)N(C)CC(=O)Nc3cccc(F)c3)c3ccccc3n2)cc1OC,active: 20.6 µM,
CCOc1ccccc1NC(=O)CCCNC(=O)Cn1cnc2sc(C)c(C)c2c1=O,"inconclusive: 25.9 µM [inhibitor, partial curve, poor fit]",
